Results as given in ChEMBL document CHEMBL4888484, “Replenishing the malaria drug discovery pipeline: Screening and hit evaluation of the MMV Hit Generation Library 1 (HGL1) against asexual blood stage Plasmodium falciparum ,using a nano luciferase reporter read-out” (2022).
Screen size: about 150,000 compounds; about 540 (0.36%) showed an effect of 50% or more. The list shows a part of the results.

Tested on: Plasmodium falciparum
Experiment: Primary screen in NF54 nanoGlo assay, in single point, at 2uM, 72h; a lower Z score goes with more inhibition
Format: functional, Erythrocyte
Conditions: timepoint 72 hour

Row | SMILES | % Inhibition | Z score
1 | O=C(CN1CCCCCC1=O)N1CCN(S(=O)(=O)c2ccc3c(c2)CCCC3)CC1 | -1% | 0.12
2 | Cn1c(C(=O)N[C@H]2CCN(CC(F)F)C2)cc(=O)c2ccccc21 | 3% | -0.46
3 | O=C1NCCCC[C@@H]1N(Cc1cccc(OCCc2ccccc2F)c1)S(=O)(=O)c1cccc2cccnc12 | 6% | -0.73
4 | CC1CCCC(C)N1C(=O)CN[C@H](CO)c1ccccc1 (stereo not given in full) | -5% | 0.55
5 | c1ccc2c(c1)CN(c1ncnc3sccc13)CCN2 | -1% | 0.15
6 | Cc1ccc(OCCN)c(C(=O)N[C@H]2CCC[C@H]2Cc2ccc(F)cc2)c1 | 3% | -0.35
7 | CCc1nc(CN(C)[C@H]2CCN(C)C2=O)no1 | -9% | 1.44
8 | Cc1cnc(CNc2nc(C(C)C)no2)o1 | -3% | 0.38
9 | C=CCN(C(=O)[C@H]1CC(=O)N(C2CCCC2)C1)C1CCCC1 | -6% | 0.98
10 | c1ccc2nc(N3CCC4(CC3)CNCCO4)cnc2c1 | -3% | 0.55
11 | O=C(OCCn1ncc2ccccc21)c1cscn1 | 0% | -0.04
12 | COCCN(CCC(=O)NCc1cccnc1)C(=O)c1csc(Nc2ccccc2OC)n1 | -2% | 0.21
13 | CN1C(=O)N(c2ccccc2)/C(=N\O)C1(C)C | -8% | 0.89
14 | CNC(=O)c1cccc(C(=O)OCCn2ncc3ccccc32)c1 | -10% | 1.42
15 | Cc1cc(NC(=O)CN2CCOCC2)on1 | -14% | 2.66
16 | O=C1NCCN(Cc2ccoc2)[C@H]1CC(=O)N1CCCO1 | -5% | 0.8
17 | Oc1ccc(-c2nc(CCCOc3ccc(Cl)cc3Cl)n[nH]2)cc1 | -8% | 1.1
18 | CC(CC1NCCC2(O)CCCCC12)c1ccccc1 (stereo not given) | -3% | 0.54
19 | COC(=O)[C@]1(C)C[C@H](C(=O)NC2CCC2)[C@H](c2ccc(Cl)cc2)N1C | -11% | 1.57
20 | Cc1nc2ccccc2n1Cc1cc(C(=O)NCCS(C)(=O)=O)no1 | -6% | 0.82
21 | CC(=O)Nc1ccc(NC(=O)CC2OCC3CCCCN3C2=O)cc1 (stereo not given) | -31% | 3.59
22 | Cc1csc(CNc2ccc(C(F)(F)F)nc2)n1 | -7% | 0.91
23 | CN(C)c1cccc(C(=O)N2CCOC[C@@H](CO)C2)c1 | -9% | 1.69
24 | Cn1cc(C(=O)C(=O)N(Cc2ccc(F)cc2)C(C)(C)C)cn1 | -1% | 0.14
25 | Cc1nn(C)cc1-c1nn(-c2nc(-c3ccc(Cl)cc3)cc(C(F)(F)F)n2)c(-c2cn(C)nc2C)c1Cl | 35% | -3.93
26 | COc1cccc2sc(N(C)CC(=O)Nc3cccc(OC(F)F)c3)nc12 | -6% | 1.09
27 | COC(=O)C(C)(C)NC(=O)c1ccnc2[nH]cnc12 | -7% | 1.46
28 | Cc1ccnc([C@@H](NC(=O)c2ccc(C)n2C(F)F)C2CC2)c1 | -15% | 1.66

Row | SMILES | % Inhibition | Z score
29 | COc1ccc(NC(=O)Cn2cnc3c(nnn3C)c2=O)cc1OC | -9% | 1.47
30 | Cc1n[nH]cc1CNCc1ccccc1CN1CCOCC1 | -6% | 0.86
31 | Cc1ccc(C2(c3noc(CN4CCC(OCc5cccnc5)CC4)n3)CCCC2)cc1 | -3% | 0.4
32 | COc1ccc(OCC(=O)N(Cc2cccc(Br)c2)[C@H]2CCS(=O)(=O)C2)cc1 | -9% | 0.82
33 | CCCN1CCCN(c2nc(OC)nc(N3CCCCCC3)n2)CC1 | -1% | 0.07
34 | CCc1nnc(CNC(=O)c2cnc(-c3cccnc3)nc2)s1 | -12% | 1.6
35 | Cc1nc(-c2cnc(C3CC3)nc2C)n(C2CCN(C)CC2)n1 | -9% | 1.75
36 | CC1(C)CC(NC(=O)COc2ccccc2)CC(C)(CNC(=O)COc2ccccc2)C1 (stereo not given) | -2% | 0.22
37 | CC1(C)C[C@]1(C(=O)NCc1nc(-c2cnccn2)n[nH]1)c1ccccc1F | -3% | 0.31
38 | COc1ccc2c(c1)OC[C@]1(CO)CN(CC(=O)N3CCOCC3)C[C@H]21 | -2% | 0.27
39 | CC1(C)C(CNC(=O)COc2ccccc2O)C1(C)C | -12% | 1.66
40 | CC(C)Oc1cc(N2CCCNC(=O)C2)nc(N)n1 | -8% | 1.51
41 | O=C(Cc1cccc(Cl)c1)NC[C@H]1CCN(C2CCCC2)C1 | 0% | -0.04
42 | c1ccc(-c2noc(Cc3cc(C4CC4)no3)n2)c(Cn2cccn2)c1 | -5% | 1.04
43 | Cc1cccc2c1CCN2Cc1cnn([C@@]2(C)CCS(=O)(=O)C2)c1 | 1% | -0.17
44 | Fc1cc(-c2cnc3ccc(F)cn23)c2ncccc2c1 | 0% | -0.08
45 | Nc1ccc2ncn(C3CC3)c(=O)c2c1 | -3% | 0.32
46 | CCc1ccc(-c2c(C)sc(NC(=O)C3CCN(C(C)=O)CC3)c2C(N)=O)cc1 | -2% | 0.31
47 | COc1ccc(C(NS(=O)(=O)C(C)C)[C@H]2C[C@@H](O)C2)cn1 (stereo not given in full) | -9% | 1.2
48 | CC1(CCc2nc([C@H]3CCOC3)n[nH]2)CC1 | 1% | -0.14
49 | O=C(CNc1ncc(Cl)cn1)NC1CCCCC1 | 29% | -3.96
50 | CN(C)S(=O)(=O)Oc1ccc2c(c1)OCO2 | -3% | 0.44
51 | Cc1nnc([C@H](C)Nc2ccc(-c3cccc(F)c3)c(F)c2)o1 | -17% | 1.94
52 | COc1ccc(CCC(=O)N2CC(N3CCC(C(N)=O)CC3)C2)cc1 | -10% | 1.9
53 | Cc1cccc2oc(CCNC(=O)C3CC3c3c(F)cccc3Cl)nc12 (stereo not given) | 30% | -3.4
54 | Cc1nc(CNc2ccn(C)n2)cs1 | -11% | 1.62
55 | COCc1nc(CC(C)C)nc(N2CCN(C(=O)c3cccs3)CC2)c1Cc1cc(C)ccc1C | 10% | -1.46
